Results published in patent publication US6255286A, “Depsipeptides and drugs containing the same as the active ingredient” (Nisshin Flour Milling Co., Ltd., priority 1996, dated 2001).
Not every detail of the peptide structures is certain; ends, links or a residue may be inferred. Where a SMILES comes first, the peptide text is derived from it. [ ]: non-standard residue; d: D form. The star is where a group is joined. ξ: configuration not given here. Myristoyl(3ξ-yloxy)GlnLeuOH = CCCCCCCCCCCC(CC(=O)N[C@@H](CCC(N)=O)C(=O)N[C@@H](CC(C)C)C(=O)O)O*; X6 = CCCCCCCCCCCC(CC(=O)N[C@@H](CCC(=O)O)C(=O)N[C@@H](CC(=O)O)C(=O)O)O*; X5 = CCCCCCCCCCCC(CC(=O)N[C@@H](CCC(=O)O)C(=O)N[C@@H](CC(C)C)C(=O)O)O*; X4 = CCCCCCCCCCCC(CC(=O)N[C@@H](CCCCN)C(=O)O)O*; NBnVal = CC(C)[C@H](NCc1ccccc1)C(=O)O; X3 = CCCCCCCCCCCCCCCC[C@H](CC(=O)O)O*; Fmoc = O=C(OCC1c2ccccc2-c2ccccc21)*; X1 = CCCCCCCCCCCOC[C@H](CC(=O)O)O*; X2 = CCCCCCCCCCCC(CC(=O)O)O*; NMeV = CN[C@H](C(=O)O)C(C)C; Cbz = O=C(OCc1ccccc1)*; Bz = O=C(c1ccccc1)*

System: production of apolipoprotein E in Hep G2 cells
Assay: Promotion of apolipoprotein E production in Hep G2 cells, assayed by enzyme immunoassay
Assay type: cell-based, human
Conditions: Conc. 1 μM, methanol control defined as 100

CCCCCCCCCCCC(CC(=O)N[C@@H](CCC(N)=O)C(=O)N[C@@H](CC(C)C)C(=O)O)OC(=O)[C@@H](NC(=O)[C@@H](CC(C)C)NC(=O)[C@H](CC(=O)O)NC(=O)[C@@H](NC(=O)OCC1c2ccccc2-c2ccccc21)C(C)C)[C@@H](C)CC (stereo partly shown) [Compound 63]
Relative amount of apolipoprotein E (%): 370%

CCCCCCCCCCCC(CC(=O)N[C@@H](CCC(N)=O)C(=O)N[C@@H](CC(C)C)C(=O)O)OC(=O)[C@@H](NC(=O)[C@@H](CC(C)C)NC(=O)[C@H](CC(=O)O)NC(=O)[C@@H](N)C(C)C)[C@@H](C)CC (stereo partly drawn) [Compound 64] (H-VD[dL]I-{Myristoyl(3ξ-yloxy)GlnLeuOH})
Relative amount of apolipoprotein E (%): 155%

CCCCCCCCCCCC(CC(=O)N[C@@H](CCC(N)=O)C(=O)N[C@@H](CC(C)C)C(=O)O)OC(=O)[C@@H](NC(=O)[C@@H](CC(C)C)NC(=O)[C@H](CC(=O)O)NC(=O)[C@@H](NC(C)=O)C(C)C)[C@@H](C)CC (stereo partly drawn) [Compound 67] (Ac-VD[dL]I-{Myristoyl(3ξ-yloxy)GlnLeuOH})
Relative amount of apolipoprotein E (%): 132%

CCCCCCCCCCCC(CC(=O)N[C@@H](CCC(N)=O)C(=O)N[C@@H](CC(C)C)C(=O)O)OC(=O)[C@@H](NC(=O)[C@@H](CC(C)C)NC(=O)[C@H](CC(=O)O)NC(=O)[C@@H](NCc1ccccc1)C(C)C)[C@@H](C)CC (stereo partly drawn) [Compound 69] (H-[NBnVal]D[dL]I-{Myristoyl(3ξ-yloxy)GlnLeuOH})
Relative amount of apolipoprotein E (%): 173%

CCCCCCCCCCCC(CC(=O)N[C@@H](CCC(N)=O)C(=O)N[C@@H](CC(C)C)C(=O)O)OC(=O)[C@@H](NC(=O)[C@@H](CC(C)C)NC(=O)[C@H](CC(=O)O)NC(=O)[C@@H](NC(=O)c1ccccc1)C(C)C)[C@@H](C)CC (stereo partly drawn) [Compound 71] (Bz-VD[dL]I-{Myristoyl(3ξ-yloxy)GlnLeuOH})
Relative amount of apolipoprotein E (%): 196%

CCCCCCCCCCCC(CC(=O)N[C@@H](CCC(N)=O)C(=O)N[C@@H](CC(C)C)C(=O)O)OC(=O)[C@@H](NC(=O)[C@@H](CC(C)C)NC(=O)[C@H](CCC(=O)O)NC(=O)[C@@H](NC(=O)OCC1c2ccccc2-c2ccccc21)C(C)C)[C@@H](C)CC (stereo partly drawn) [Compound 75] (Fmoc-VE[dL]I-{Myristoyl(3ξ-yloxy)GlnLeuOH})
Relative amount of apolipoprotein E (%): 221%

CCCCCCCCCCCC(CC(=O)N[C@@H](CCC(N)=O)C(=O)N[C@@H](CC(C)C)C(=O)O)OC(=O)[C@@H](NC(=O)[C@@H](CC(C)C)NC(=O)[C@H](CC(=O)O)NC(=O)[C@H](C(C)C)N(C)C(=O)OCC1c2ccccc2-c2ccccc21)[C@@H](C)CC (stereo partly drawn) [Compound 85] (Fmoc-[NMeV]D[dL]I-{Myristoyl(3ξ-yloxy)GlnLeuOH})
Relative amount of apolipoprotein E (%): 201%

CCCCCCCCCCCC(CC(=O)N[C@@H](CCC(N)=O)C(=O)N[C@@H](CC(C)C)C(=O)O)OC(=O)[C@@H](NC(=O)[C@@H](CC(C)C)NC(=O)[C@H](CC(=O)O)NC(=O)[C@@H](NC)C(C)C)[C@@H](C)CC (stereo partly drawn) [Compound 86] (H-[NMeV]D[dL]I-{Myristoyl(3ξ-yloxy)GlnLeuOH})
Relative amount of apolipoprotein E (%): 153%

CCCCCCCCCCCC(CC(=O)N[C@@H](CCC(N)=O)C(=O)N[C@@H](CC(C)C)C(=O)O)OC(=O)[C@@H](NC(=O)[C@H](CC(C)C)NC(=O)[C@H](CC(=O)O)NC(=O)[C@@H](NC(=O)OCC1c2ccccc2-c2ccccc21)C(C)C)[C@@H](C)CC (stereo partly shown) [Compound 99]
Relative amount of apolipoprotein E (%): 172%

CCCCCCCCCCCC(CC(=O)N[C@@H](CCC(N)=O)C(=O)N[C@@H](CC(C)C)C(=O)O)OC(=O)[C@@H](NC(=O)[C@@H](CC(C)C)NC(=O)[C@H](CC(=O)O)NC(=O)[C@@H](NC(=O)OCc1ccccc1)C(C)C)[C@@H](C)CC (stereo partly drawn) [Compound 111] (Cbz-VD[dL]I-{Myristoyl(3ξ-yloxy)GlnLeuOH})
Relative amount of apolipoprotein E (%): 207%

CCCCCCCCCCCC(CC(=O)O)OC(=O)[C@@H](NC(=O)[C@@H](CC(C)C)NC(=O)[C@H](CC(=O)O)NC(=O)[C@@H](NC(=O)OCC1c2ccccc2-c2ccccc21)C(C)C)[C@@H](C)CC (stereo partly drawn) [Compound 114] (Fmoc-VD[dL]I-X2)
Relative amount of apolipoprotein E (%): 330%

CCCCCCCCCCCC(CC(=O)N[C@@H](CCCCN)C(=O)O)OC(=O)[C@@H](NC(=O)[C@@H](CC(C)C)NC(=O)[C@H](CC(=O)O)NC(=O)[C@@H](NC(=O)OCC1c2ccccc2-c2ccccc21)C(C)C)[C@@H](C)CC (stereo partly drawn) [Compound 116] (Fmoc-VD[dL]I-X4)
Relative amount of apolipoprotein E (%): 228%

CCCCCCCCCCCC(CC(=O)N[C@@H](CCC(=O)O)C(=O)N[C@@H](CC(C)C)C(=O)O)OC(=O)[C@@H](NC(=O)[C@@H](CC(C)C)NC(=O)[C@H](CC(=O)O)NC(=O)[C@@H](NC(=O)OCC1c2ccccc2-c2ccccc21)C(C)C)[C@@H](C)CC (stereo partly drawn) [Compound 118] (Fmoc-VD[dL]I-X5)
Relative amount of apolipoprotein E (%): 239%

CCCCCCCCCCCC(CC(=O)O)OC(=O)[C@@H](NC(=O)[C@@H](CC(C)C)NC(=O)[C@H](CC(=O)O)NC(=O)[C@@H](NC(=O)OCc1ccccc1)C(C)C)[C@@H](C)CC (stereo partly drawn) [Compound 126] (Cbz-VD[dL]I-X2)
Relative amount of apolipoprotein E (%): 219%

CCCCCCCCCCCC(CC(=O)O)OC(=O)[C@@H](NC(=O)[C@@H](CC(C)C)NC(=O)[C@H](CC(=O)O)NC(=O)[C@@H](NC(=O)c1ccccc1)C(C)C)[C@@H](C)CC (stereo partly drawn) [Compound 131] (Bz-VD[dL]I-X2)
Relative amount of apolipoprotein E (%): 153%

CCCCCCCCCCCC(CC(=O)N[C@@H](CCC(=O)O)C(=O)N[C@@H](CC(C)C)C(=O)O)OC(=O)[C@H](CC(=O)O)NC(=O)[C@@H](CC(C)C)NC(=O)[C@H](CC(=O)O)NC(=O)[C@@H](NC(=O)OCC1c2ccccc2-c2ccccc21)C(C)C (stereo partly drawn) [Compound 134] (Fmoc-VD[dL]D-X5)
Relative amount of apolipoprotein E (%): 197%

CCCCCCCCCCCC(CC(=O)N[C@@H](CCC(=O)O)C(=O)N[C@@H](CC(C)C)C(=O)O)OC(=O)[C@H](CC(=O)O)NC(=O)[C@@H](CC(=O)O)NC(=O)[C@H](CC(=O)O)NC(=O)[C@@H](NC(=O)OCC1c2ccccc2-c2ccccc21)C(C)C (stereo partly drawn) [Compound 140] (Fmoc-VD[dD]D-X5)
Relative amount of apolipoprotein E (%): 199%

CCCCCCCCCCCC(CC(=O)N[C@@H](CCC(=O)O)C(=O)N[C@@H](CC(C)C)C(=O)O)OC(=O)[C@H](CC(=O)O)NC(=O)[C@@H](CC(=O)O)NC(=O)[C@H](CC(=O)O)NC(=O)[C@H](CC(=O)O)NC(=O)OCC1c2ccccc2-c2ccccc21 (stereo partly drawn) [Compound 142] (Fmoc-DD[dD]D-X5)
Relative amount of apolipoprotein E (%): 178%

CCCCCCCCCCCC(CC(=O)O)OC(=O)[C@H](CC(=O)O)NC(=O)[C@@H](CC(=O)O)NC(=O)[C@H](CC(=O)O)NC(=O)[C@H](CC(=O)O)NC(=O)OCC1c2ccccc2-c2ccccc21 (stereo partly drawn) [Compound 149] (Fmoc-DD[dD]D-X2)
Relative amount of apolipoprotein E (%): 221%

CCCCCCCCCCCC(CC(=O)N[C@@H](CCC(=O)O)C(=O)N[C@@H](CC(=O)O)C(=O)O)OC(=O)[C@H](CC(=O)O)NC(=O)[C@@H](CC(=O)O)NC(=O)[C@H](CC(=O)O)NC(=O)[C@H](CC(=O)O)NC(=O)OCC1c2ccccc2-c2ccccc21 (stereo partly drawn) [Compound 151] (Fmoc-DD[dD]D-X6)
Relative amount of apolipoprotein E (%): 241%

CCCCCCCCCCCC(CC(=O)N[C@@H](CCC(N)=O)C(=O)N[C@@H](CC(C)C)C(=O)N[C@H](CC(C)C)C(=O)O)OC(=O)[C@@H](NC(=O)[C@@H](CC(C)C)NC(=O)[C@H](CC(=O)O)NC(=O)[C@@H](NC(=O)OCC1c2ccccc2-c2ccccc21)C(C)C)[C@@H](C)CC (stereo partly shown) [Compound 154]
Relative amount of apolipoprotein E (%): 273%

CCCCCCCCCCC[C@H](CC(=O)N[C@@H](CCC(N)=O)C(=O)N[C@@H](CC(C)C)C(=O)O)OC(=O)[C@@H](NC(=O)[C@@H](CC(C)C)NC(=O)[C@H](CC(=O)O)NC(=O)[C@@H](NC(=O)OCC1c2ccccc2-c2ccccc21)C(C)C)[C@@H](C)CC [Compound 156]
Relative amount of apolipoprotein E (%): 268%

CCCCCCCCCCCC(CC(=O)N[C@@H](CCC(N)=O)C(=O)N[C@@H](CC(C)C)C(=O)O)OC(=O)[C@@H](NC(=O)[C@H]1CCCN1C(=O)[C@H](CC(=O)O)NC(=O)[C@@H](NC(=O)OCC1c2ccccc2-c2ccccc21)C(C)C)[C@@H](C)CC (stereo partly shown) [Compound 161] (Fmoc-VD[dP]I-{Myristoyl(3ξ-yloxy)GlnLeuOH})
Relative amount of apolipoprotein E (%): 177%

CCCCCCCCCCCOC[C@H](CC(=O)O)OC(=O)[C@@H](NC(=O)[C@@H](CC(C)C)NC(=O)[C@H](CC(=O)O)NC(=O)[C@@H](NC(=O)OCC1c2ccccc2-c2ccccc21)C(C)C)[C@@H](C)CC [Compound 164] (Fmoc-VD[dL]I-X1)
Relative amount of apolipoprotein E (%): 210%

CCCCCCCCCCCCCCCC[C@H](CC(=O)O)OC(=O)[C@@H](NC(=O)[C@@H](CC(C)C)NC(=O)[C@H](CC(=O)O)NC(=O)[C@@H](NC(=O)OCC1c2ccccc2-c2ccccc21)C(C)C)[C@@H](C)CC [Compound 167] (Fmoc-VD[dL]I-X3)
Relative amount of apolipoprotein E (%): 132%
